# Measured values from paper PMC6919601, “Identification of Plasmodium dipeptidyl aminopeptidase allosteric inhibitors by high throughput screening” (PLoS ONE, 2019).
# Hit rate of the full screen: of about 110,000 compounds, about 230 (0.21%) showed an effect of 50% or more. The list shows a part of the results.
# Target: DPAP1 (Plasmodium falciparum, UniProt Q8IIJ9)
# Test: primary screen, percent inhibition; read by cleavage of a fluorogenic dipeptide substrate; higher = more effect of the substance
# Parameters: species or system P. falciparum D10 trophozoite lysates; single well
# 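Further: 30 min substrate incubation versus DMSO and 10 µM JCP410 controls.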
# DPAP1, sequence (Q8IIJ9 whole entry, looked up): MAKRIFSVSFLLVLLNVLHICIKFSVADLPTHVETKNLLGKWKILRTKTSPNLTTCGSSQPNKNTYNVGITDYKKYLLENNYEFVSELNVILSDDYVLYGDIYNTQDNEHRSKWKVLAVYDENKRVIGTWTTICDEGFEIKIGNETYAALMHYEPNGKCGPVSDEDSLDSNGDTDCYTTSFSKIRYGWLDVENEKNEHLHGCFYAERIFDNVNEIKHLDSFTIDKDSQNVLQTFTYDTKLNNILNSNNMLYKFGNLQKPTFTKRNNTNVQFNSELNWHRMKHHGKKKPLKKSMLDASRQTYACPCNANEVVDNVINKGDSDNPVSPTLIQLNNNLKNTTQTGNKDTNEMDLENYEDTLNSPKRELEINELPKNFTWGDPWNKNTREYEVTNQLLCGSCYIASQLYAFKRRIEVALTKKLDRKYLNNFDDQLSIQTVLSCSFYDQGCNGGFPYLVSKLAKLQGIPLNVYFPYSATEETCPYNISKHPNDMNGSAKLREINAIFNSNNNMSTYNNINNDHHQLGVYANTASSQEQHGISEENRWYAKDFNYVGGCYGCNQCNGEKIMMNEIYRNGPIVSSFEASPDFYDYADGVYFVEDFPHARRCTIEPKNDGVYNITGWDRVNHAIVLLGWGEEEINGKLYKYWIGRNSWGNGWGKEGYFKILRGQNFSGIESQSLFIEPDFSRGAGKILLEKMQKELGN
row,SMILES,% Inhibition @ 10 uM
1,COCc1cc(C)nc(SCC(=O)Nc2ccc(Br)cc2)c1C#N,4.33%
2,CCOc1ccccc1C1N(c2nccs2)C(=O)C2CCCN21 (centres unmarked),-6.06%
3,O=C(O)c1ccc(CNCc2cccc(Cl)c2)s1,2.65%
4,COc1ccc(OC)c(C2CC(=O)N=C(NC(=O)c3ccc(Oc4ccccc4)cc3)N2)c1 (centres unmarked),-2.44%
5,CC(C(=O)NCCN1CCOCC1)n1c2ccccc2c2cnnc(O)c21 (centres unmarked),4.36%
6,Cc1ccn2c(NC(=O)CC(C)(C)C)c(-c3ccccc3)nc2c1,5.4%
7,CC(C)N1C(=O)CCC1C(=O)NCCc1ccccc1 (centres unmarked),-1.34%
8,CCOc1cc(C2NCCc3c2[nH]c2ccccc32)ccc1O (centres unmarked),2.41%
9,CC1=CC(C)C(CNCc2ccco2)C(C)C1 (centres unmarked),2.62%
10,COc1ccc2c(CNC3CCCCCC3)c(C(=O)O)n(C)c2c1,-0.677%
11,CCOC(=O)c1[nH]c2ccccc2c1NC(=O)CC(C)(C)C,-2.74%
12,CN(C)c1nc(NC(C)(C)C)nc(Oc2ccc(=O)n(C)n2)n1,-1.31%
13,OCC1CCCN(CC2CC3C=CC2C3)C1 (centres unmarked),5.01%
14,Cn1cc(C(=O)C(=O)NCCOc2ccccc2Cl)c2ccccc21,2.99%
15,OCC1CCCN(Cc2cccc(Cl)c2)C1 (centres unmarked),5.03%
16,Oc1ccc(-c2csc(-c3c[nH]c4ccccc34)n2)cc1O,3.47%
17,CCC(=O)N1N=C(c2ccccc2)CC1c1ccc(Br)cc1 (centres unmarked),-2.6%
18,CCC[C@@H](/C=C/S(=O)(=O)c1ccccc1)NC(=O)[C@H](CSCc1ccccn1)NC1=NS(=O)(=O)c2ccccc21,-3.34%
19,Cc1ccc(-n2nc(C)c3c(C(F)(F)F)cc(=O)n(CC(=O)NCc4ccccc4)c32)cc1,1.63%
20,CCCN1CCC(N(CC)CCN(C)C)CC1,-1.82%
21,O=C1OC2(CCCC2)OC(=O)C1=Cc1ccc(OCc2ccccc2F)cc1,-2.5%
22,Cc1nc2ccc(S(=O)(=O)NC(C(=O)NCc3ccc(F)cc3)C(C)C)cc2s1 (centres unmarked),-9.31%
23,CCOC(=O)N1CCN(c2c(NCc3ccccc3OC)c(=O)c2=O)CC1,3.54%
24,Cc1ccc(CS(=O)Cc2ccc(C(=O)NC(C)C34CC5CC(CC(C5)C3)C4)o2)cc1 (centres unmarked),3.24%
25,COc1ccc(Cl)cc1C(=O)Nc1cc(Cl)ccc1C(=O)O,-5.26%

row,SMILES,% Inhibition @ 10 uM
1,Sc1nnc(CN2CCSCC2)n1-c1ccc(Cl)cc1,4.84%
2,CCOC(=O)c1cc(C)n(CC2CCC(C(=O)NC3CCCCCC3)CC2)c1C (centres unmarked),-0.943%
3,O=C(Cc1cccc2ccccc12)Nc1nc(-c2ccc(S(=O)(=O)N3CCOCC3)cc2)cs1,5.26%
4,CN(C)CCNC(=O)c1nc(CS(=O)(=O)c2ccccc2)no1,-3.07%
5,Cc1ccc(N2C(N)=C(C#N)C(c3cc(Br)cs3)C3=C2CCCC3=O)cc1 (centres unmarked),2.44%
6,Clc1ccc(Cn2cnc3ccccc32)cc1Cl,-1.59%
7,Cc1ccc(C#N)c(SCC(=O)N(c2ccccc2)c2ccccc2)n1,0.674%
8,COc1ccccc1C(=O)N/C(=C/c1ccc(F)cc1)C(=O)Nc1cccc(C(=O)O)c1,-0.981%
9,COc1cc(/C=C2\S/C(=N/c3ccc(Cl)cc3)N(C)C2=O)cc(OC)c1O,13.6%
10,Cc1ccc2nc3c(O)n(CC(=O)NCCCN4CCc5ccccc5C4)ncc-3c2c1,1.92%
11,COC(=O)CCS(=O)(=O)c1cc(Cl)ccc1Cl,4.12%
12,COc1ccc(-c2cn3c4c(=O)n(C)c(=O)n(C)c4nc3n2-c2cccc3c2OCCO3)cc1,-0.994%
13,CCn1cc(Br)c(C(=O)Nc2cccc(C(F)(F)F)c2)n1,1.62%
14,O=C1NCC(=O)N2CCc3ccccc3C12 (centres unmarked),-0.261%
15,O=C1C(Cc2ccccc2)=C(O)OC2C=CC=CC12 (centres unmarked),-1.85%
16,O=[N+]([O-])c1c(NCCO)ccc2nonc12,-0.807%
17,CCN1CCC(N2CCN(c3ccc([N+](=O)[O-])cc3)CC2)CC1,1.57%
18,COc1ccc(-n2nc3ccc(NC(=O)COc4ccccc4Cl)cc3n2)cc1,14.2%
19,CC(C)(C)NC(=O)CN(c1cccc(Br)c1)S(C)(=O)=O,-5.19%
20,CC1CCCCN1CCNC(=O)c1cnn2c(C(F)(F)F)cc(-c3ccccc3)nc12 (centres unmarked),-5.92%
21,COc1ccc2c(COc3ccc4c(=O)c(-c5ccccc5)coc4c3)cc(=O)oc2c1,-2.91%
22,COc1ccccc1/C=C(\C#N)c1nc(-c2ccc(Cl)c(Cl)c2)cs1,2.6%
23,CCOc1ccc(C2C3=C(CC(C)(C)CC3=O)N(CC(=O)O)C3=C2C(=O)CC(C)(C)C3)cc1Cl,-0.318%
24,CCc1ccc(C2CC(=O)c3c([nH]c(C(=O)OC)c3C)C2)cc1 (centres unmarked),2.35%
25,O=C(CSc1nc2cccnc2[nH]1)NCc1ccco1,3.95%
